Measurements taken from ChEMBL document CHEMBL1157539, “Thousands of chemical starting points for antimalarial lead identification” (Nature, 2010).
Over roughly 13,000 compounds, “IFI” has its median near 4; the highest 2% begin near 17. The list shows a part of the results.

assay: GSK_TCMDC: Inhibition Frequency Index (IFI). The number of non-kinase HTS assays where a compound showed > 50 % inhibition, expressed as a percentage of the number of such assays in which the compound was tested (-0 is zero); format: functional

| Structure (SMILES) | IFI [%] |
| --- | --- |
| CCCCCN(C(=O)Nc1cc(C(F)(F)F)cc(C(F)(F)F)c1)C(C)c1nc2ccccc2c(=O)n1CC (stereo not drawn) | 3.55 |
| CN(C)Cc1cccc(-c2ccc(NC(=O)c3ccc4c(=O)n(Cc5cnn(C)c5)cnc4c3)cc2)c1 | -0 |
| CCCCN(CCCC)CC(O)c1cc(-c2ccc(Cl)cc2)nc2c(Cl)cc(Cl)cc12 (stereo not drawn) | 0.75 |
| C=CCNC(=O)CCCNC(=N)N | 1.5 |
| Cn1nc(-c2ccc(NC(=O)Nc3cc(C(F)(F)F)ccc3F)cc2)c2cnc(NCCCCN3CCCC3)nc21 | 9.3 |
| Fc1ccc(-c2cncc(Nc3ccncc3)n2)cc1 | 3.03 |
| CC(C)CNC(=O)c1ccc(-c2cccc(CN3CCC(N4CCCC4)CC3)c2)nc1 | 0 |
| Oc1ccc(CCNCCCCCCNCCc2ccc(-c3ccccc3)cc2)cc1O | 9.93 |
| O=C(NC1CCN(CCN2CCC(c3ccccc3C(F)(F)F)CC2)CC1)c1ccc(-c2ccc(Cl)cc2)cc1 | 7.27 |
| COc1cc(OC)c2c(c1Cl)O[C@]1(C2=O)C(=O)C(Cc2ccccc2)(Cc2ccccc2)C(=O)C[C@H]1C | 1.47 |
| CC(=O)c1sc(NC(=O)Nc2ccc(C)cc2C)nc1C | -0 |
| COc1cc(NC(=O)c2sc(-c3ccc(Cl)cc3)cc2NC(=O)N2CCCC2)ccc1OCCN1CCCC1 | 6.57 |
| Cc1cccn2c(=O)c3cc(C(=O)NC(C)c4ccccc4)c(=N)n(CCc4ccccc4)c3nc12 (stereo not drawn) | 1.74 |
| COc1cc2nc(NCCCO)nc(Nc3ccc(Oc4ccccc4)cc3)c2cc1OC | 9.35 |
| Cc1nc(NC2=NCN(CCCN3CCOCC3)CN2)nc2c(C)cccc12 | 7.02 |
| O=C(Cc1ccccc1)NC(CCN1CCC(N(C2CC2)S(=O)(=O)c2cccc(C(F)(F)F)c2)CC1)c1ccc(Cl)c(Cl)c1 (stereo not drawn) | 2.82 |
| CC(=Nc1ccc(Cl)c(Cl)c1)N(C)C | 0.74 |
| O=C(NCCCCCN1CCC(c2c[nH]c3ccccc23)CC1)Nc1ccc(Br)cc1 | 6.38 |
| COC(=O)Nc1nc2cc3c(cc2s1)OCCO3 | 4.93 |
| CCOc1ccc(OCC)c(N2CCN(CCCCNC(=O)c3ccc(NC(=O)c4ccc(Cl)cc4)cc3)CC2)c1 | 1.79 |
| CS(=O)(=O)Nc1cccc(-c2cnc3[nH]cc(-c4ccc(CN)cc4)c3c2)c1 | 5.5 |
| Cc1cc(Nc2ccc(C)c(Cl)c2)n2ncnc2n1 | 0.85 |

| Structure (SMILES) | IFI [%] |
| --- | --- |
| Cc1nc(O)c2c(ccc3ccc(CNc4ccc(C(=O)N[C@@H](CCC(=O)O)C(=O)O)c(F)c4)cc32)n1 | 1.47 |
| CCC(Nc1noc(-c2c(-c3ccccc3)noc2C)n1)c1ccccc1 (stereo not drawn) | 1.52 |
| CC(C)CC1c2[nH]c3ccccc3c2CCN1C(=O)CCc1ccccc1 (stereo not drawn) | 3.94 |
| COc1ccc(-c2cccc(CNC3CCN(CC4Cn5c(=O)ccc6ccc(F)c4c65)CC3)c2)cc1 (stereo not drawn) | 4.17 |
| O=C(/C=C/c1ccc(Cl)c(Cl)c1)NCCCCCCN1CCCN(C(=O)Nc2cc(Cl)cc(Cl)c2)CC1 | 4.96 |
| CCN(CC)c1ccc(NC(=S)NC2CCN(CCCCCNC(=O)/C=C/c3ccc(Cl)c(Cl)c3)CC2)cc1 | 9.93 |
| CCCN(CCC)CCCNc1ccc(C(=O)Nc2ccc(C)c(F)c2)cc1[N+](=O)[O-] | 3.62 |
| COc1ccc(S(=O)(=O)Nc2ccc(C(=O)NCc3ccccc3C(F)(F)F)cc2)cc1N1CCN(CC2CC2)CC1 | 19.4 |
| Cc1cccc2nc(-c3cccc(-c4ccc(NC(=O)C(C)C(=O)NC(C)C)cc4)c3)[nH]c12 (stereo not drawn) | 4.35 |
| CS(=O)(=O)CCNCc1cccc(-c2cc3c(Nc4ccc(OCc5cccc(F)c5)c(Cl)c4)ncnc3s2)c1 | 2.7 |
| CCc1cc(-c2onc(C)c2-c2cc3ccccc3o2)c(O)cc1OC | 13.8 |
| COc1ccc(-c2ccc(NC(=O)c3ccccc3)cc2)cc1CN1CCCN(C)CC1 | 4.95 |
| COc1ccccc1CN1CCC(NC(=O)c2ccc(-c3cccc(C(F)(F)F)c3)s2)CC1 | 13.8 |
| COc1cc(NC(=O)c2sc(-c3ccc(Cl)cc3)cc2NC(=O)CN2CC[C@@H](O)C2)ccc1OCCN1CCCC1 | 13 |
| CC1CCC2(CC1)N=C(N)N=C(N)N2OCc1cc2ccccc2c2ccccc12 (stereo not drawn) | 3.52 |
| Nc1nc(N)c2c(ccc3c2ccn3Cc2cccc3ccccc23)n1 | 5.84 |
| Nc1nc2ccc(S(=O)(=O)Nc3ccc(C(=O)N[C@@H](CCC(=O)O)C(=O)O)c(F)c3)cc2c(=O)[nH]1 | 3.5 |
| COc1ccccc1CNc1ccnc(N2CC(Oc3ccc(F)cc3)C2)n1 | 4 |
| CCn1c(Sc2ccc(C#N)c([N+](=O)[O-])c2)nnc1-c1cccc(Cl)c1 | 1.43 |
| N#Cc1ccc2[nH]cc(-c3cn4cc(SC5CCCC5)ccc4n3)c2c1 | 0.69 |
| c1ccc2[nH]c(Nc3ccc(Nc4nc5ccccc5[nH]4)cc3)nc2c1 | 15 |
| COc1ccc2ncc(F)c(CCN3CC[C@H](NCc4cc5c(s4)CCCN5)[C@H](O)C3)c2n1 | 0.74 |

| Structure (SMILES) | IFI [%] |
| --- | --- |
| CC1CN(c2cnn(Cc3cccc(NC(=O)Nc4cccc(C(F)(F)F)c4)c3)c(=O)c2Cl)CC(C)N1 (stereo not drawn) | 1.36 |
| Cc1cccc2nc(-c3cccc(-c4ccc(NC(=O)Nc5ccc6c(c5)OCO6)cc4)c3)[nH]c12 | 4.95 |
| COc1c(C2CCN(CCCCNC(=O)c3cc(-c4ccc(Cl)cc4)oc3C)CC2)ccc2c1CCCC2 | 11.4 |
| O=C(Nc1cc(Cl)cc(Cl)c1)N[C@H]1CCN(CCCCCNC(=O)C2CC2c2ccc(Cl)c(Cl)c2)C1 (stereo partly drawn) | 13.3 |
| CC1(C)N=C(N)N=C(N)N1c1ccc2ccccc2c1 | 0 |
| COC(=O)c1ccccc1N1CCN(CCCCNC(=O)c2ccc(NC(=O)c3cc(Cl)cc(Cl)c3)cc2)CC1 | 1.77 |
| CCC(C(C)C)n1ccc2c3c(N)nc(N)nc3ccc21 (stereo not drawn) | 9.24 |
| CC(C)(C)c1cc(NC2CC2)nc(-c2ccccn2)n1 | 7.89 |
| CC(C)[C@H](NC(=O)NC1CCC(CCN2C3CCC2CC(OC(=O)C(CO)c2ccccc2)C3)CC1)C(O)(c1ccccc1)c1ccccc1 (stereo partly drawn) | 3.88 |
| COCn1ncc2cc(-c3cccc(NC(=O)c4csc(NC(C)=O)n4)c3)ccc21 | 7.22 |
| COc1cccc(-c2cccc(CNC3CCN(CC4Cn5c(=O)ccc6ccc(F)c4c65)CC3)c2)c1 (stereo not drawn) | 3.64 |
| O=c1[nH]ccc2nc(N[C@@H]3CCNC3)nc(Nc3cccc(S(=O)(=O)N4CCOCC4)c3)c12 | 18.2 |
| O=C(/C=C/c1ccc(Cl)c(Cl)c1)NCCCCCN1CCC(NC(=O)Nc2ccccc2F)CC1 | 2.52 |
| Cc1cc(Nc2cccc(Cl)c2)nc2ccc(NC(=O)c3ccc(=O)[nH]c3)cc12 | 7.25 |
| CC1CC(C)CN(CC(O)CNC(=O)Nc2ccc(Br)cc2)C1 (stereo not drawn) | 2.76 |
| O=S(=O)(NCCCN1CCOCC1)c1ccc2nccc(Nc3ccc(Oc4ccccc4)cc3)c2c1 | 1.46 |
| Cc1nc(-c2nc(NCCc3ccncc3)ncc2-c2ccsc2)sc1C | 4.44 |
| CCN(CC)CCCC(C)N/C(=N\c1ccccc1Br)Nc1ccc(C#N)cc1O (stereo not drawn) | 0 |
| O=C(Nc1cccc(CN2CCN(C(=O)c3cccc(F)c3)CC2)c1)c1ccco1 | 1.52 |
| O=C(Nc1cccc(C(F)(F)F)c1)c1cccc(S(=O)(=O)NC2CCN(CC3CCCCC3)C2)c1 (stereo not drawn) | 10.2 |
| O=C(Nc1cccc(OC2CCN(Cc3ccccc3)CC2)c1)c1ccc(Cl)c(Cl)c1 | 5.07 |
| COc1ccc2nc3cc(Cl)ccc3c(Nc3ccc(Oc4ccc(Nc5c6ccc(Cl)cc6nc6ccc(OC)cc56)cc4)cc3)c2c1 | 0.73 |

| Structure (SMILES) | IFI [%] |
| --- | --- |
| COc1ccccc1NC(=O)c1cc(C(=O)c2cc(Cl)ccc2O)cn(-c2ccccc2OC)c1=O | 0.97 |
| Cc1cccc2nc(-c3ccc(-c4cccc(CN5CCN(c6ccncc6)CC5)c4)s3)[nH]c12 | 15.1 |
| COc1ccc2nccc(N/N=C/c3ccc([N+](=O)[O-])cc3)c2c1 | 0 |
| NC(=O)Nc1ccc2cn[nH]c2c1 | -0 |
| Cc1[nH]c(C)c(-c2ccc(Nc3ccc(C(F)(F)F)cn3)cc2)c(=O)c1Br | 4.46 |
| CC(C)(C)c1ccc(C(=O)NC2CCC(CCN3CCc4ccc(S(C)(=O)=O)cc4CC3)CC2)cc1C(F)(F)F (stereo not drawn) | 21.6 |
| CSc1ccc(CN2CCC(NC(=O)c3ccc(-c4cccc(C(F)(F)F)c4)s3)CC2)cc1 | 15.2 |
| COc1ccc(Br)cc1C1Nc2ccc3ccccc3c2C2=C1C(=O)CC(c1ccccc1)C2 (stereo not drawn) | 2.21 |
| O=C(NCc1ccc(F)cc1)c1ccc(N2CCN(c3ccncc3)CC2)cn1 | 3.45 |
| Oc1ccc(-c2nc3c(N4CCN(Cc5ccccc5)CC4)cccc3n2C2CCNCC2)cc1 | 2.8 |
| CCS[C@@H]1O[C@H](COC(=O)c2ccccc2)[C@H](OC(=O)c2ccccc2)[C@H](OC(=O)c2ccccc2)[C@H]1OC(=O)c1ccccc1 | 0.79 |
| CCn1c(C2CCN(CCC3CCN(C(=O)/C=C/c4ccc(Cl)c(Cl)c4)CC3)CC2)nc2ccccc21 | 6.38 |
| CCCOc1cc(NC(=O)Nc2ccnc3ccccc23)cc(OCCC)c1 | 5.15 |
| CCCN(CCC)CCCNc1ccc(C(=O)Nc2ccc(C(C)C)cc2)cc1[N+](=O)[O-] | 3.65 |
| Oc1cccc(-c2nc(-c3ccccc3)c(-c3ccc(Oc4ccc(-c5[nH]c(-c6cccc(O)c6)nc5-c5ccccc5)cc4)cc3)[nH]2)c1 | 5.3 |
| COc1cc2nc(N3CCC(CNC(=O)c4ccc(-c5ccc(C#N)cc5C)cc4)CC3)nc(N)c2cc1OC | 6.31 |
| Nc1nc(N)c2c(Oc3cccc4ccccc34)cccc2n1 | 10.6 |
| COc1ccc(CCN(C)CCCCNC(=O)c2ccc(NC(=O)c3ccc(Cl)cc3)cc2)c(OC)c1 | 5.17 |
| COc1ccc(Nc2nccc(N3CCC(NC(=O)Nc4cc(C)ccc4C)C3)n2)cc1 (stereo not drawn) | 0 |
| COc1cc2ncnc(NCCc3ccccc3Cl)c2cc1OC | 0.76 |
| C[C@H]1CN(Cc2cccc(-c3cc(CNC(=O)c4cccc(CN5CCN(C/C=C/c6ccccc6)CC5)c4)ccc3F)c2)CCN1 | 13.9 |
| O=C1Nc2cccc3c2C1(CCCCN1CCC(c2c[nH]c4cc(C(F)(F)F)ccc24)CC1)CCC3 (stereo not drawn) | 11.5 |
